Results: article PMC12136788
The list shows a part of the results.

T1: UNK ZnF1-3 (human, UniProt Q9C0B0 31-174)
T1 sequence: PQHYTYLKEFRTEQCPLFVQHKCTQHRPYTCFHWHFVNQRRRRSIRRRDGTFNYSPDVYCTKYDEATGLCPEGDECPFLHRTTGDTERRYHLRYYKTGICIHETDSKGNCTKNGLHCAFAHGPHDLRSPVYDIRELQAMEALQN

B1: chr7:99638656:99638657:+_ENSG00000106261_ENST00000324306|hu_mus|FALSE|FALSE (ssRNA)
RNA: GGGAGUUCUACAGUCCGACGAUCCUCUAUAUAAAUGUAGGCUUAUCAUGUUGACCUGGUUGUUAAUAAUAAUCCUUAACUGAAAGUUUAUAAAAAUACAACUUAAAAAUUUGCUUGCACAACCACCCUAACCCUUAACACUCGCAACAGAGGAUUGAGCAUCA
B2: chr15:41988372:41988373:+_ENSG00000174197_ENST00000570161|hu_hu|FALSE|FALSE (ssRNA)
RNA: GGGAGUUCUACAGUCCGACGAUCUGUCUCUUCCUGUUUCACAGUGACCCCUUCUGGGCACUCACCAAGUUCGUAGUCAUAAUCAUCUAGAGGUUCCUCUUUAAUAACAACAUUGAAGCUUCCGUUCUGGUCUAACGGUGAGGCCAACAGAGGAUUGAGCAUCA
B3: chr1:110121848:110121849:+_ENSG00000065135_ENST00000369851|hu_hu|FALSE|FALSE (ssRNA)
RNA: GGGAGUUCUACAGUCCGACGAUCCCGUUUAAUCACUCCUGCUAGUUCUGGAGUCAUGACUCCUUCUUCAGCACUGCCAGCUAAAACAAAUAAUUGCCGGGCAUCAUCUGCCCUGGCAGCUUCCCCAAAGUCAAUCUUUAGCCGCAACAGAGGAUUGAGCAUCA
B4: chr9:70409674:70409675:+_ENSMUSG00000032212_ENSMUST00000049263|mus_mus|FALSE|FALSE (ssRNA)
RNA: GGGAGUUCUACAGUCCGACGAUCUACAAAUUCCUGAGUUGUCUUGUUCUCUUCUGUAGAAAGCAACUCCUGGGAAUGCACAAUUUCCUCUUCAUUUUCACCAAAUUCUUCCAAGUCCUUUAGCUCUUCAUUUCCAUCUUGGUCCAACAGAGGAUUGAGCAUCA
B5: chr3:132387698:132387699:+_ENSG00000081307_ENST00000264991|hu_hu|motif|central (ssRNA)
RNA: GGGAGUUCUACAGUCCGACGAUCUUGAACUUUACUUAAUCCUGCUUGAUGAGGUUGGAAGAAAAGUCUAUUCAUAUUGGCGGGUUCCACCUUGUCAUAAUCAAAGAGUAGCAACUUACCAAUGCCACAUCUUGUCAGCAUUUCCAACAGAGGAUUGAGCAUCA
B6: chr8:95500983:95500984:-_ENSG00000164944_ENST00000437199|hu_hu|hu_hu_hu_mus_True|1_28 (ssRNA)
RNA: GGGAGUUCUACAGUCCGACGAUCAGAACACAUCUAUCGAGUAAAGGACCGUACAUGACGGCCUCUACCACUGCCUCCACUAACAAACUUUCCUCUCGAGCCUCCACCUGCCGCUAUUGUACUAGCCCAGGACGGUCCCAAGUCCAACAGAGGAUUGAGCAUCA

biological target: T1, UNK ZnF1-3; test: nsRBNS (natural sequence RNA bind-n-seq); RBNS binding buffer (assumed for nsRBNS): 25 mM Tris pH 7.5, 150 mM KCl, 3 mM MgCl2, 0.01% Triton X-100, 500 ug/ml BSA, 20 U/ml SUPERase-In, 4 C; UNK is unkempt and MSI1 is Musashi-1; names of the RNAs are library labels; protein concentration not given here; high values mean tight binding

| Binder | binding signal [enrichment R] |
| --- | --- |
| B1 | 2.29 |
| B2 | 0.933 |
| B3 | 0.919 |
| B4 | 0.333 |
| B5 | 0.935 |
| B6 | 1.16 |
